# Laboratory results reported in article PMC12136788.
# This is one part of the list.
# T1: UNK ZnF1-3 (human, UniProt Q9C0B0 31-174)
# T1 sequence: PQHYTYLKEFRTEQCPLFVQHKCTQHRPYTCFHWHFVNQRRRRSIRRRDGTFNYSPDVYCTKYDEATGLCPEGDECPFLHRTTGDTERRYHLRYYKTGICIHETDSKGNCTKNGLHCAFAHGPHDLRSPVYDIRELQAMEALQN
# B1: chr5:37680062:37680063:+_ENSMUSG00000029121_ENSMUST00000031004|mus_hu|mus_mus_mus_hu_False|8_88 (ssRNA)
# RNA: GGGAGUUCUACAGUCCGACGAUCUUUGGGUGUAGCUGGUACCUCGUACACAGGCCCGUCAUACAUGCCCCUGGAAACCCCUUGCAAUCCAAAAACCUUAUUCCUGAUUUUGACGCGCUGGUACAGGUGCUCUGGGAACGCCUUCAACAGAGGAUUGAGCAUCA
# B2: chr9:110467127:110467128:+_ENSMUSG00000044791_ENSMUST00000153838|mus_mus|motif|central (ssRNA)
# RNA: GGGAGUUCUACAGUCCGACGAUCUUCUUUGCCAUAUCUUUGGAACUGGUAGUCAAAAGUUAAUUCUGAGCCUGAAGGAACGGGUUUGGUGGUAAAAAAUCCAACCCUCAGCUGUCCAUUCACAGUCCAUUUCUGGGUUUCACACAACAGAGGAUUGAGCAUCA
# B3: 46157249_46157369_1373_CDS_ENSMUSG00000015176_ENSMUST00000165017|mouse|control|control (ssRNA)
# RNA: GGGAGUUCUACAGUCCGACGAUCAGGUUUCUGGUUACUGCCUGCAGGUUGCUUAGGAGUUGUCACUGCCUUUGCUGCAGAUGGCUUCGGAGUGACAGCUGGCUUGGGACUCUUGGUUGUACUGACUGGCUUGGCAGGAGCUUCCAACAGAGGAUUGAGCAUCA
# B4: 33338705_33344351_3722_CDS_ENSG00000083642_ENST00000450460|human|control|control (ssRNA)
# RNA: GGGAGUUCUACAGUCCGACGAUCCUGUACCAACUUAGUCAAGUCAUCCAUACCUAAUUUCUCCUCCUGUUCUGUGACGGGCGUUUUUUUCCUGCCUCUAGGCUUCUCCAAUUCAGACCUUACAAGAUCAGAGUCGUCUCUCUUCAACAGAGGAUUGAGCAUCA
# B5: 247055108_247057967_1981_CDS_ENSG00000153207_ENST00000391829|human|control|control (ssRNA)
# RNA: GGGAGUUCUACAGUCCGACGAUCUGCAAAACAGCUCAAGACUAUAUUAAGAUUGCUAAGAAGCAAAUAGCAUUGCUGGAUAGACUGUAUAGUUUGUGGAUCCAUGAAAUGACACGAACCAUCAAAUAAUGGCACACAUAGUCUCAACAGAGGAUUGAGCAUCA
# B6: 118830706_118831971_2346_3pUTR_ENSG00000182197_ENST00000378204|human|control|control (ssRNA)
# RNA: GGGAGUUCUACAGUCCGACGAUCAGCAGUGGCAGGCCAGCGGUGUUUGGCUGGUAGGGGCUUGUCACAAUUCCAUAGAACUAUGAUCUGGGCACAGUACUGGGACUUGGCUGCAGCCACGAGAAGCUUCAACACUGGCUGGGACAACAGAGGAUUGAGCAUCA
# Biological target: T1, UNK ZnF1-3
# Assay: nsRBNS (natural sequence RNA bind-n-seq); RBNS binding buffer (assumed for nsRBNS): 25 mM Tris pH 7.5, 150 mM KCl, 3 mM MgCl2, 0.01% Triton X-100, 500 ug/ml BSA, 20 U/ml SUPERase-In, 4 C; UNK is unkempt and MSI1 is Musashi-1; names of the RNAs are library labels; protein concentration not given here; high values mean tight binding
row,Binder,binding signal
1,B1,0.732 enrichment R
2,B2,0.932 enrichment R
3,B3,0.547 enrichment R
4,B4,0.584 enrichment R
5,B5,0.6 enrichment R
6,B6,1.45 enrichment R
